# Assay results as given in PubChem BioAssay AID504332 (National Center for Advancing Translational Sciences (NCATS), 2011).
# About 31,000 (8.9%) of roughly 350,000 compounds were called active. Inconclusive results, whose numbers are uncertain, are shown with a selection of clear calls. Calls come from the whole dose curve; as a rule, active = well fitted inhibition curve with a large enough effect; inconclusive = small, poorly fitted or top-dose-only effect; inactive = no such curve, though single readings can be large or run the other way. A potency beside an inconclusive call is a rough fit, not a confirmed value.
# Target: Histone-lysine N-methyltransferase EHMT2 (Homo sapiens) (UniProt Q96KQ7)
# Sequence of UniProt Q96KQ7 (Q96KQ7 whole entry, looked up): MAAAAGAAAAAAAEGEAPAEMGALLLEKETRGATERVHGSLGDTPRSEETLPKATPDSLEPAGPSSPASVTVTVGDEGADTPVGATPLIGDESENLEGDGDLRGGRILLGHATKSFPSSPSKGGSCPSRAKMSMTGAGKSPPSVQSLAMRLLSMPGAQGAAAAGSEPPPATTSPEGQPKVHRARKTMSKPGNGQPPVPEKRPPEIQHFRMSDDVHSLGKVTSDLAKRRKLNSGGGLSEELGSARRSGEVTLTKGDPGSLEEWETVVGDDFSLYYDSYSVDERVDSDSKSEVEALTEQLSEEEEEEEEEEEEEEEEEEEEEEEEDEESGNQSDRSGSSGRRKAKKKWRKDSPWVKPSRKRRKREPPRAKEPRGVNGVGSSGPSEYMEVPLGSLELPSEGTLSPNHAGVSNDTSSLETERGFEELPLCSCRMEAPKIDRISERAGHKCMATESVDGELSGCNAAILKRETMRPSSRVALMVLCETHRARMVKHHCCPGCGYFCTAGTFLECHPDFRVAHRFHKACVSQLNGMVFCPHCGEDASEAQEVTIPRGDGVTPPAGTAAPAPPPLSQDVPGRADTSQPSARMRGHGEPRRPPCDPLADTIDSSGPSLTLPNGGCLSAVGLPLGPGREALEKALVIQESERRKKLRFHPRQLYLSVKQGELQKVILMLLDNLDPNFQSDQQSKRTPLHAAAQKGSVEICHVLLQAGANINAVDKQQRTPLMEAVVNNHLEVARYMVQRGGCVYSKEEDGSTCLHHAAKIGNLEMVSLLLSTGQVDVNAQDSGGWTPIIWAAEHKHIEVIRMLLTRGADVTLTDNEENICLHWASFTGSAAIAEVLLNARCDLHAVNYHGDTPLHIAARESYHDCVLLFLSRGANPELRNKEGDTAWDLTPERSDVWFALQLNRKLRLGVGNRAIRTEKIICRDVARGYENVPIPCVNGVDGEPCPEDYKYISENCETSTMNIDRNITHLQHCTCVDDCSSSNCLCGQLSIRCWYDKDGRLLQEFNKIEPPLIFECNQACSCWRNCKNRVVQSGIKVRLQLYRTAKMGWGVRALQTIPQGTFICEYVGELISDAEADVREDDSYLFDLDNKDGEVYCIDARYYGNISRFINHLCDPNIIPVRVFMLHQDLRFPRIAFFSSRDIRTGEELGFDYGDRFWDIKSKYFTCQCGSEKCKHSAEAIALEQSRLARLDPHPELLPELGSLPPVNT
# Test: qHTS Assay for Inhibitors of Histone Lysine Methyltransferase G9a; note: nearly all actives have a fitted effect of over 75% in size
# Conditions: G9a H3K9 monomethylation, AlphaScreen, 2 h; activity, negative = inhibition: at 59 µM (top of the series) unless noted
# Outline: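 AlphaScreen read-out: biotin-H3K9 peptide (500 nM) methylation by 20 nM enzyme with 20 uM SAM, 2 h at room temperature after 15 min compound preincubation; anti-monomethyl H3K9 antibody plus donor/acceptor beads, 10 min dark.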
# % is set by controls: 0 for no effect and ±100 for the full control effect; potency is the fitted concentration of half-maximal effect; tags give direction and shape of the fitted curve.
SMILES,Potency,"activity, negative = inhibition"
OCCCNCc1ccc(Cl)cc1Cl,"inconclusive: 28.2 µM [inhibitor, partial curve, poor fit]",
CCCNC(=S)N(Cc1cc2cc(C)ccc2n2nnnc12)CC(C)(C)CN(C)C,"inconclusive: 17.8 µM [inhibitor, partial curve, poor fit]",
Cc1cccc(N(Cc2cc3ccc(C)cc3[nH]c2=O)C(=O)c2ccco2)c1,"inconclusive: 25.1 µM [inhibitor, single point]",
Cc1sc2nc(CSC(C)C(=O)Nc3ccccn3)[nH]c(=O)c2c1C (centres undefined),active: 7.94 µM,
Cc1c(Cl)cccc1Nc1nn2c(=O)c3ccc(C(=O)NCCc4ccccc4)cc3nc2s1,"inconclusive: 39.8 µM [inhibitor, partial curve, poor fit]",
CO[C@H]1C=CO[C@@]2(C)Oc3c(C)c(O)c4c(O)c(c(C=NN5CCN(C6CCCC6)CC5)c(O)c4c3C2=O)NC(=O)C(C)=CC=C[C@H](C)[C@H](O)[C@@H](C)[C@@H](O)[C@@H](C)[C@H](OC(C)=O)[C@@H]1C,"inconclusive: 39.8 µM [inhibitor, single point]",
CC(=O)NC1C(=O)N(CCN2CCOCC2)c2ccc(Br)cc21 (centres undefined),active: 3.16 µM,
O=C(NCCCN1CCOCC1)c1ccc2c(=O)n(-c3ccc(F)c(Cl)c3)c(=S)[nH]c2c1,active: 39.8 µM,
Cc1c(C)n(C)c2ccc(C(=O)NCc3cccs3)cc12,active: 50.1 µM,
O=C(CSc1cccc2cccnc12)N/N=C/c1cccc(O)c1,inactive,
COc1ccc(CCNc2ncnc3c2c(C)c(C)n3CCCN(C)C)cc1OC,"inconclusive: 3.16 µM [inhibitor, partial curve, poor fit]",
CCS(=O)(=O)c1ccc(Sc2nncn2C)c([N+](=O)[O-])c1,"inconclusive: 79.4 µM [inhibitor, single point]",
Cc1ccc(CN2C(=O)C3CCCN3c3ccc(S(=O)(=O)N4CCOCC4)cc32)cc1 (centres undefined),active: 12.6 µM,
COc1ccc(CNC(=O)COC(=O)CN2C(=O)COc3ccccc32)cc1,"inconclusive: 0.501 µM [inhibitor, full curve]",
CC(=O)Oc1ccc2oc(-c3ccccc3)c(C(N)=O)c2c1,inactive,
CCC/C=N/NC(=O)c1ccc(F)cc1,"inconclusive: 7.94 µM [inhibitor, partial curve, poor fit]",
O=C(NC1CCN(c2ncccn2)CC1)c1ccccc1F,"inconclusive: 2.24 µM [inhibitor, partial curve, poor fit]",
CCN1CCN(CC(=O)Nc2ccc(N(C)C)cc2)CC1,"inconclusive: 89.1 µM [inhibitor, single point]",
CCOC(=O)C1=C(C)N(c2ccc(OCC)cc2)C(=O)/C1=C\c1ccco1,"inconclusive: 28.2 µM [inhibitor, single point]",
Cc1nn(-c2ccccc2)c(Cl)c1/C=C1\SC(=S)N(C)C1=O,"inconclusive: 89.1 µM [inhibitor, single point]",
CSc1cccc(NC(=O)C2CCN(c3ncnc4c3nc3n4CCCCC3)CC2)c1,inactive,
CN(C)c1ccc(-c2cc([C@H]3[C@@H]4C=CCC[C@@]4(C)C(=O)N3Cc3ccccc3)ccc2F)cc1,"inconclusive: 3.16 µM [inhibitor, single point]",
O=C(Nc1cccnc1)C(Cc1ccccc1)n1cccc1 (centres undefined),active: 50.1 µM,

SMILES,Potency,"activity, negative = inhibition"
COc1cccc(OCC(O)CN2CCN(c3ccccn3)CC2)c1 (centres undefined),active: 44.7 µM,
N#Cc1c(Cl)cccc1-n1ccnc1,,inactive: 49.4% [at 12.7 µM]
Nc1cccc2c1C(=O)N(C(=O)c1ccc(Cl)c(S(=O)(=O)N3CCCCCC3)c1)C2=O,"inconclusive: 31.6 µM [inhibitor, partial curve, poor fit]",
CC(=O)c1ccc(N2CCN(C(=O)c3cc(-c4ccncc4)nc4ccc(Cl)cc34)CC2)cc1,,inactive: 8.77% [at 12.7 µM]
Cn1cc(CN2CCCC(C(=O)Nc3cccc(-c4cc5ccccc5[nH]4)c3)C2)cn1 (centres undefined),"inconclusive: 28.2 µM [inhibitor, single point]",
CNC(=O)C(=O)Nc1cc2c3c(c1)CCN3C(=O)CC2,inactive,
CCO/C(C)=C1/SC(=S)NC1=O,"inconclusive: 50.1 µM [inhibitor, partial curve, poor fit]",
Cc1sc2ncnc(Sc3ccccc3C(=O)Nc3ccc(C#N)cc3)c2c1C,"inconclusive: 22.4 µM [inhibitor, partial curve, poor fit]",
COc1cc(S(=O)(=O)n2ccnc2)ccc1Br,"inconclusive: 70.8 µM [inhibitor, single point]",
Cc1ccc(S(=O)(=O)CCC(=O)Nc2cccc(S(=O)(=O)N3CCCCCC3)c2)cc1,inactive,
O=c1oc(-c2ccc(F)cc2)nc2ccsc12,inactive,
CCOC(=O)c1ccc(NC(=O)C2=C(C)Nc3nc(SCc4ccc(Cl)cc4)nn3C2c2ccc(C)cc2)cc1 (centres undefined),inactive,
CC(=O)Nc1sc(N/N=C\c2cccc(Cl)c2)nc1-c1cccs1,active: 10 µM,
O=C(NC(=S)Nc1ccc(N2CCOCC2)cc1)c1cccc(Cl)c1,active: 28.2 µM,
COc1ccc(-c2nc(-c3ccccn3)ncc2S(C)(=O)=O)cc1,inactive,
N#C/C(=C\c1ccc(C(=O)O)cc1)S(=O)(=O)c1cc(Br)ccc1Br,"inconclusive: 89.1 µM [inhibitor, partial curve, poor fit]",
CCN(CC)CCN1C(=O)C(=O)/C(=C(/O)c2ccc(Cl)cc2)C1c1ccncc1 (centres undefined),"inconclusive: 14.1 µM [inhibitor, partial curve, poor fit]",
COCCCNC(=O)/C(C#N)=C/c1c(N2CCN(C)CC2)nc2c(C)cccn2c1=O,,inactive: 14.5% [at 2.33 µM]
O=Cc1s/c(=N\S(=O)(=O)c2ccccc2)n(CCCCl)c1Cl,active: 44.7 µM,
CC(C)(C)c1ccc(Oc2nc3ccccn3c(=O)c2/C=C(\C#N)c2nc3ccccc3[nH]2)cc1,inactive,
COC(=O)c1sc2cccc(F)c2c1S(=O)(=O)N1CCN(c2ccccc2OC)CC1,"inconclusive: 25.1 µM [inhibitor, single point]",
CC1CCN(C(=O)CN2CCSc3ccccc32)CC1,,inactive: 6.71% [at 12.7 µM]
CC(NC(=O)c1nn(C)c2c1CSc1ccccc1-2)c1ccccc1 (centres undefined),"inconclusive: 39.8 µM [inhibitor, partial curve, poor fit]",

SMILES,Potency,"activity, negative = inhibition"
CC(=O)c1ccc(NC(=O)CSc2nnc(NC(=O)CN3CCOCC3)s2)cc1,,inconclusive: -76.8% [inhibitor]
CCc1ccc(NC(=O)COC(=O)c2cccs2)cc1,inactive,
CC(=O)c1ccc(NC(=O)C(C)Sc2ccccn2)cc1 (centres undefined),,inconclusive: -55.3% [inhibitor]
Cc1nnc(SCC(=O)NC(=O)NC(C)C)s1,"inconclusive: 89.1 µM [inhibitor, single point]",
O=C(OCc1nnc(-c2ccccc2)o1)c1cc(=O)c2ccccc2o1,"inconclusive: 50.1 µM [inhibitor, partial curve, poor fit]",
Cc1cccc(C(=O)Nc2nnc(Cc3c[nH]c4ccccc34)s2)c1,"inconclusive: 1.41 µM [inhibitor, partial curve, poor fit]",
Clc1ccc(-c2csc(-c3cccnc3)n2)s1,active: 39.8 µM,
COc1ccc(S(=O)(=O)N2CCN(C(=O)c3cccs3)CC2)cc1OC,"inconclusive: 89.1 µM [inhibitor, single point]",
COc1ccc(-c2nc(CS(=O)CC(=O)NC3CCCCC3)c(C)o2)cc1OC (centres undefined),"inconclusive: 89.1 µM [inhibitor, single point]",
CCOc1ccc(C2CC(c3cccc(C)c3)n3ncnc3N2)cc1 (centres undefined),"inconclusive: 89.1 µM [inhibitor, single point]",
O=C(CCCN1C(=O)/C(=C\c2ccccc2)SC1=S)Nc1cccc(C(=O)O)c1,"inconclusive: 79.4 µM [inhibitor, single point]",
CCNc1nc2c(c(=O)[nH]c(=O)n2C)n1CC(O)COc1ccc(Cl)cc1Cl (centres undefined),inactive,
Cc1ccc2c(Cl)cc(Cl)c(OCC(=O)O)c2n1,"inconclusive: 50.1 µM [inhibitor, partial curve]",
CC(C)Oc1ccc(/C(O)=C2/C(=O)C(=O)N(CCN3CCNCC3)C2c2cccc([N+](=O)[O-])c2)cc1 (centres undefined),"inconclusive: 56.2 µM [inhibitor, single point]",
Cc1[nH]c2ccccc2c1/C=N\NC(=O)Cn1nnc(-c2ccccc2)n1,inactive,
CCc1noc(C)c1C(=O)NNC(=O)c1cc(OC)c(OC)c(OC)c1,active: 6.31 µM,
Cc1ccc(C)c(NC(=O)CSc2nc3ccc(N4C(=O)c5ccccc5C4=O)cc3s2)c1,active: 11.2 µM,
COc1ccccc1NC(=O)N(C1CCCC1)C1CCN(C(C)=O)CC1,active: 39.8 µM,
Cc1ccc2nc(N(CCCN(C)C)C(=O)c3sc4ccccc4c3Cl)sc2c1,active: 50.1 µM,
CC(C)(C)NC(=O)NC(=O)COC(=O)CCCc1c[nH]c2ccccc12,"inconclusive: 39.8 µM [inhibitor, single point]",
C#CCOc1ccc(C2C3=C(CCCC3=O)N(CC(=O)O)C3=C2C(=O)CCC3)cc1Br,"inconclusive: 89.1 µM [inhibitor, single point]",
COc1ccccc1N1CCN(C2CCCN(C(=O)CN3CCCC3=O)C2)CC1 (centres undefined),"inconclusive: 39.8 µM [inhibitor, partial curve, poor fit]",
NC(=O)CC(NC(=O)Cc1cccc2ccccc12)c1ccc(N2CCN(c3ccc(F)cc3)CC2)c([N+](=O)[O-])c1 (centres undefined),,inconclusive: -72.3% [inhibitor]
